Measured values taken from PubChem BioAssay AID493208 (National Center for Advancing Translational Sciences (NCATS), 2011).
Screen size: about 44,000 compounds; about 340 (0.77%) were called active. Not shown: some 5% with an inconclusive outcome. Calls come from the whole dose curve; as a rule, active = well fitted inhibition curve with a large enough effect; inconclusive = small, poorly fitted or top-dose-only effect; inactive = flat fitted curve, though single readings scatter. This is one part of the list.

assay: Acumen qHTS Assay for Inhibitors of the mTORC1 Signaling Pathway in MEF (Tsc2-/-, p53-/-) Cells: Sytravon; settings: phospho-rpS6 immunofluorescence/PI, 24 h; series mostly up to 38.3 µM; activity change, negative = inhibition: at the top concentration;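 note: plate controls were DMSO for no effect and rapamycin for full effect; nearly all actives have a fitted effect of over 50% in size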
In short: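 Readout is phospho-S6 Alexa 488 signal normalized to PI per well, reported as % active cells with thresholds set from rapamycin (7.5 nM) and DMSO controls. Cells: Tsc2-/-, p53-/- MEFs, 24 hrs compound at 37 C; PI cell number serves as viability.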

Activity change, negative = inhibition, inactive:
CCOc1ccc(S(=O)(=O)NCc2cccn2Cc2cccc(C)c2)cc1 11.4%, CC(C)COc1ccc(C(=O)N(Cc2cccc(F)c2)C2CCS(=O)(=O)C2)cc1 (stereo not drawn) 0.359%, CCCn1c(=N)c(C(=O)NC2CCCCC2)cc2c(=O)n3cc(C)ccc3nc21 7.46%, CCc1cccc(C)c1NC(=O)C(NS(=O)(=O)c1ccc2c(c1)CCC(=O)N2)c1ccccc1 (stereo not drawn) 1.14%, CCN1CCc2c(sc(-n3cccc3)c2C(CCC(C)C)NC(=O)NCCC(=O)OC)C1 (stereo not drawn) 2.83%, CCCn1c2ccccc2c2cnn(CC(=O)NCCCOC(C)C)c(=O)c21 -14.4%, Cc1ccc(C)c(N2CCN(C(c3ccccc3)c3nnc(-c4ccccc4)o3)CC2)c1 (stereo not drawn) -14.1%, Cc1ccc(NS(=O)(=O)c2c(C)nc3sc(C)c(C)n3c2=O)cc1F -10.1%, COc1cccc(-c2nc(CS(=O)(=O)CC(=O)Nc3ccc(C)c(Cl)c3)c(C)o2)c1 2.16%, COc1ccc(CCNC(=O)Cc2ccc(NC(=O)N3CCSc4ncccc43)cc2)cc1OC -0.584%, Cc1cccc(NC(=O)c2cc3c([nH]c2=O)CC(c2ccccc2)CC3=O)c1 (stereo not drawn) 25.8%, O=C(Cn1c(=O)n(Cc2ccc(F)cc2)c(=O)c2sc3ccccc3c21)Nc1ccc(F)cc1F -0.121%, COc1cc(C(=O)NCc2nc(-c3ccc(Cl)cc3)no2)cc(OC)c1OC 3.24%, COC(=O)CCNC(=O)N1CCN(c2nnc(C)c3c(C)n(-c4ccccc4)nc23)CC1 -20.5%, COc1cccc(CNC(=O)Cn2cccc2C(=O)c2ccccc2)c1 -1.9%, COc1ccc(C(=O)N2CCN(c3nc4c(OC)cccc4s3)CC2)cc1OC -15.7%, Cc1cccc(CN2C(=O)c3ccccc3S(=O)(=O)c3ccc(C(=O)OCC4CCCO4)cc32)c1 (stereo not drawn) -5.2%, CCc1ccc(CNC(=O)C2COc3ccccc3C2)cc1 (stereo not drawn) 0.0851%, Cc1ccc(N2CC(NC(=O)C3CCCCC3)CC2=O)cc1 (stereo not drawn) -6.36%, COc1ccc(NC(=O)CSCc2cc(=O)c3cc(Cl)ccc3[nH]2)cc1 3.92%, CCOC(=O)c1cc(S(=O)(=O)N2CCN(c3ccccc3OC)CC2)[nH]n1 -8.83%, Cc1cccc(C(=O)Nc2cc(-c3ccccc3F)nn2-c2ccccc2)c1 0.534%, CCOc1ccc(C2CC(=O)Nc3c2c(=O)[nH]c2ncnn32)cc1 (stereo not drawn) -2.88%, CCc1ccc(C(=O)c2cn(CC(=O)Nc3ccc(F)cc3)c3ccc(F)cc3c2=O)cc1 -1.77%, CCn1c(CNC(=O)c2ccc(OC)cc2)nnc1SCC(=O)Nc1ccc(F)cc1 3.11%, COc1cc(NS(=O)(=O)c2cc3[nH]c(=O)[nH]c3cc2C)cc(OC)c1OC 2.27%, COc1ccc(-c2cc(C(=O)Nc3c(C)nn(Cc4ccccc4C)c3C)no2)cc1 -16%, Cc1ccc2c(c1)-c1c(cnc3cc(-c4ccc(Cl)cc4)nn13)CO2 2.29%, Cc1ccc(CCNC(=O)c2sc3nc4n(c(=O)c3c2C)CCCC4)cc1 -2.91%, COc1ccccc1CNC(=O)c1ccc2c(c1)nc(C)n2-c1cccc(C)c1 0.372%, CC(CNC(=O)c1cc2cc(S(=O)(=O)N3CCCCC3)ccc2n1C)c1ccccc1 (stereo not drawn) -2.57%, COc1ccc(NC(=O)C(C)N2Cc3ccccc3C2=O)cc1OC (stereo not drawn) -8.94%, Cc1ccc2c(c1)c(=O)c1ccccc1n2CCCC(=O)Nc1ccc(C)c(C)c1 10.6%, Cc1ccc(COC(=O)c2[nH]c3c(c2C)C(=O)CC(c2ccc(Cl)cc2)C3)cc1 (stereo not drawn) 8.11%, CC(C)OC(=O)c1ccc(NC(=O)CSc2nc(-c3cccs3)cc(C(F)(F)F)n2)cc1 -3.24%, CC(C)CC(=O)n1nc(-c2ccco2)nc1NCc1ccc(Cl)cc1 5.62%, CCOc1ccc(NC(=O)c2ccc3nc(C(C)C)oc3c2)cc1 0.374%, CCc1cccc(NC(=O)Cn2nc(C)c3sc4ccccc4c3c2=O)c1 -14.6%, Cc1ccc(C)c(CN2C(=O)CSc3ccc(C(=O)NCc4ccccc4)cc32)c1 -8.84%, COc1ccc(Cn2c(=O)c3ccccc3n3c(-c4ccc(C)cc4)nnc23)cc1 1.87%, COc1ccccc1OC(C)C(=O)N1CCC(c2nc3ccccc3s2)CC1 (stereo not drawn) 0%, Cc1ccc(OCc2cc(=O)n3cc(C)sc3n2)c(NC(=O)c2ccco2)c1 7.7%, COc1ccc(NC(=O)c2cnc3sc(N4CCOCC4)nn3c2=O)c(OC)c1 0.0235%, Cc1ccc(C)c(NC(=O)Cn2cc(S(=O)(=O)NC(C)C)c(S(=O)(=O)NC(C)C)c2)c1 -0.203%, COc1cc(C(=O)Nc2c(C(=O)Nc3ccccc3F)oc3ccccc23)cc(OC)c1OC -8.38%, CCCn1c(NCc2ccccc2F)nc2ccccc21 -3.65%, O=C(Nc1cccc(NC(=O)c2ccc(Br)cc2)c1)c1ccccc1 -1.03%, CCC(=O)N1c2ccc(S(=O)(=O)CCC(=O)N3CCN(c4ccc(F)cc4)CC3)cc2CC1C (stereo not drawn) -1.23%, COc1ccc2c(c1)CC(NC(=O)Nc1ccc(Br)c(C)c1)CO2 (stereo not drawn) -6.98%, COc1ccc(-c2nnc(SCC(=O)Oc3cc(C)ccc3C)o2)cc1 6.66%, O=C(NCc1cccc(F)c1)c1ccc2nc(CCc3ccccc3)oc2c1 0.938%, CCOC(=O)c1cc2c(=O)n3ccccc3nc2n(CC2CCCO2)c1=NC(=O)c1ccc(F)cc1 (stereo not drawn) 0.488%, CCN(C(=O)c1cccn(Cc2cccc(Cl)c2)c1=O)c1ccccc1 4.88%, CCCCCNC(=O)c1ccc2c(=O)n(CCc3ccccc3)c(=O)[nH]c2c1 3.51%, CCOC(=O)N1CCc2c(sc(NCc3cccc(F)c3)c2C(=O)Nc2ccc(OCC)cc2)C1 0.154%, COc1ccc(C(=O)Nc2nonc2-c2ccc(OC)c(OC)c2)cc1Cl -29.4%, CCc1cc(C(=O)NCc2ccc(F)cc2)no1 1.99%, CC(=O)c1ccc(S(=O)(=O)N2CCn3cccc3C2c2ccc(F)c(F)c2)cc1 (stereo not drawn) -2.39%, COc1ccc(CNc2ncnc3c2c(-c2ccccc2)cn3-c2cccc(C)c2)cc1 11.5%, CC(C)Oc1ccc(CNC(=O)c2ccc3c(c2)N(C)C(=O)C2CCCCN32)cc1 (stereo not drawn) 1.18%, Cc1ccc(N2CC(NC(=O)C3CCCC3)CC2=O)cc1C (stereo not drawn) -0.158%, COc1cccc(NC(=O)C2CCN(S(=O)(=O)c3c(C)noc3/C=C/c3cccs3)CC2)c1 -8.87%, O=C(COc1ccccc1Cl)Nc1nc(-c2ccc(F)cc2)ns1 -0.919%
